The source gives no read counts; variants with many changes may rest on few reads.

The values below come from the RNAGym collection of RNA variant scans (doi:10.7554/elife.90254).

The labels stand for the following.
B1: LINE1-mini (parent)
chain: GGCAGAGCUCAACACAGCGUGGCAAAGUGGCUGUGGCUAGACUGCC

In the data set the parent is B1. The data set is described as follows: self-cleavage, relative activity (ratio to wild type); higher = more cleavage; in vitro, sequencing; the parent is a self-cleaving ribozyme.
In the case of GGCAUAGCACAACACAGCGUGGCAAUGUGGCUGUCGCUAGACUGCC [G5U U9A A26U G35C], the self-cleavage was 0.06.
With GGCAUAGCACAACACAGCGAGGCAAAGUGGCUGUGGCUAGACUGCC [G5U U9A U20A] the figure was 0.07; with GGCAGCGCUCAACACAGCGUGGCACAGUGGCUGUUGCUAGACUGCC [A6C A25C G35U], 0.08; with GGCAUAGCUCAACACAGCGAGGUAAAGUGGCCGUGGCUAGACUGCC [G5U U20A C23U U32C], 0.01.
Turning to GGCAUAGCUCAACACAGCGUGGCAAAGUAGCUGCGGCUAGAAUGCU [G5U G29A U34C C42A C46U], the self-cleavage amounted to 0.26.
Turning to GGCAGCGCUCCACACAGCGUGGCAAAGCGGUUGUGGCUAGACUGCC [A6C A11C U28C C31U], the self-cleavage amounted to 0.04.
With GGCAGCGCUCAUCACAGCGUGGCAAAGUGGCUGUGGCUAGAAUGCC [A6C A12U C42A] the figure was 0.14.
With GGCAGCGCUCAGCACAGUGUGCCAAAGUGGGUGAGUCUAGACUGCC [A6C A12G C18U G22C C31G U34A G36U] the figure was 0.02; with GGCAGCGCUCAGCCCAGCGUAGCAAAGUGGCUGUGGCUAGACUGCC [A6C A12G A14C G21A], 0.01; with GGCAGCGCUCUACACAGCGUGGCAAAGUGGCUGUGGCUAGACUGCG [A6C A11U C46G], 0.11.
Turning to GGCAGCGCUCAACGCAGCGUAGCAAAGUGGCUGUGGCUAGACUUCC [A6C A14G G21A G44U], the self-cleavage amounted to 0.1.
The figure for GGCAUAGCCCAACACAGCGUGGCAAAGUUGCUGUGGCUAGACUGCC [G5U U9C G29U] is 0.08; for GGCAUAGCUCAACACAGCGUGGCAAAGUGGCGGUGGCUACACUGCC [G5U U32G G40C] it is 0.07; for GGCAGCGCUCAACACAGAUUGGCAAAGUGACUGUGGCUAGACUGGC [A6C C18A G19U G30A C45G] it is 0.07.
In the case of GGCAUAGCUCAACACAGCGUGGCAAAGUGGCUGAGGCUAUACUGCC [G5U U34A G40U], the self-cleavage amounted to 0.03.
The figure for GGCAGCGCUCAGCAAAGGGUGGCAAAGUGGCUGUGGCUAGGCUGCC [A6C A12G C15A C18G A41G] is 0.13; for GGCAUAGCUCAACACAGCGUGGCAAAGGGGGUGUGGCUAGACUGAC [G5U U28G C31G C45A] it is 0.01; for GGCAUAGCCCAACACAGCGUGGCAAAUUGGAUGUGGCUAGACUGCC [G5U U9C G27U C31A] it is 0.03.
For GGCAGCGCUCAACACAGCGUGGCAUAGUGGCUGUGGCUCGACUGCA [A6C A25U A39C C46A], the self-cleavage was 0.58.
In the case of GGCAUAGCUCAACACAGCGUGGCAAAGUGACUGUGGCUAUACUGCC [G5U G30A G40U], the self-cleavage turned out to be 0.05.
With GGCAUAGCGCAACGCAGCGUGGCAAAGUGGCUGUGGCUAGAAUGCC [G5U U9G A14G C42A] the figure was 0.06.
As for GGCAGCGCUCAACUCAGAGUGUCAAAGUGGUUGUGGCUAGACGAUC [A6C A14U C18A G22U C31U U43G G44A C45U], the self-cleavage is 0.
With GGCAUAGCCCAACACAGCGUGGCAAAGUGGCUGUGGCUAGACUGCG [G5U U9C C46G] the figure was 0.03; with GGCAGCGCUCAAAACAGCGUGGCAAGGUGGCUGUGGCUAGACUGCC [A6C C13A A26G], 0.12; with GGCAGCGAUCAACACAGCGUGGAAAAGUGGCUGUGGCUAGACUGCC [A6C C8A C23A], 0.27.
With GGCAUAGCUCAACACAGCGGGGCAAAGUGGCGGUGGGUAGACUGCC [G5U U20G U32G C37G] the figure was 0.02.
In the case of GGCAUAGCUCAACACAGCGUGGCAAAGUGGCCGUGGCUAGACUGGC [G5U U32C C45G], the self-cleavage was determined as 0.07.
With GGCAUAGCUCAACACAGCGUGGCAAAGUGGCUGUGACUAGACUACC [G5U G36A G44A] the figure was 0.01.
The figure for GGCAGCGCUCAACAUAUCGUGGCAAAGUGGCUGUGGCUAGACUGCC [A6C C15U G17U] is 0.25; for GGCAGCGCUCAACACGGCGUGUCAAACUGGCUGUGGCUAGACUGAC [A6C A16G G22U G27C C45A] it is 0.04.
On to GGCAGCGUUCAACACAGCGUGGCAAAGUGACUGUGUCUAGACUGCC [A6C C8U G30A G36U], for which the self-cleavage was 0.51.
The figure for GGCAUAGCUCAACACAGCGUGUCAAAGUGGCUGCGGCUAGACUGCC [G5U G22U U34C] is 0.05.
As to GGCAGCGUUUAACAUAGCGUGGCAAAGUUGCUGUGUCAAGACUGCC [A6C C8U C10U C15U G29U G36U U38A], the self-cleavage came to 0.05.
With GGCAUAGCUCAACACAGCGUGGCAAAGCGGCUGUGGCUAGACUGGC [G5U U28C C45G] the figure was 0.04; with GGCAGCGCUCAAAACUGAGUGGCAAGGUGGCUGUGGCUAGACUGCC [A6C C13A A16U C18A A26G], 0.08.
With GGCAGCGCUCAACCCAGCGUGGCAAAGUGGCUGUGGCUAGACUGGC [A6C A14C C45G] the figure was 0.05; with GGCAUAGCUCAACACAGCGUGACAAAGUGGCCGUGGCUAGACUACC [G5U G22A U32C G44A], 0.04; with GGCAUAGCGCAACAGAGCGUGGCAAAGUGGUUGUGUCUAGACUGCC [G5U U9G C15G C31U G36U], 0.06.
With GGCAGCGCUCAACUCAACGUGGCAAGGUGGCUGUGGCUAGACUGCC [A6C A14U G17A A26G] the figure was 0.15.
For GGCAGCGCUCAACACAGCGUGGCAUAGUGGCUGUGCCUAGACUGCC [A6C A25U G36C], the self-cleavage was determined as 0.07.
With GGCAGCGUUCAACCGAGCGUGGCAAAGUGGCUGUGGCUAGACUGCC [A6C C8U A14C C15G], the self-cleavage worked out at 0.03.
Regarding GGCAGCGCUCAACAUAGCGUGGCAAAGUGGCUAUGGCUAGACUGCC [A6C C15U G33A], the self-cleavage is 1.18.
With GGCAUAGCGCAACACACCGUGGCUAAGUGGCUGUGGCUAGACUGCC [G5U U9G G17C A24U] the figure was 0.07; with GGCAUAGCUCAACACAGCGUGGCAAAGUGGCUGUUGCUAGAGUGCC [G5U G35U C42G], 0.04.
As to GGCAGCGCUUAAGACAGCGUGGCAAAGUGGCUGUGGCUAGAAUGCC [A6C C10U C13G C42A], the self-cleavage amounted to 0.05.
As to GGCAGCGCUUAACACAGCGUGGCAAGGUGGCUGUGGCUAGACUGGC [A6C C10U A26G C45G], the self-cleavage was 0.02.
For the variant GGCAGCGGUCAACACAGCGUGGCAAAUUGGCUGUGGCUCGACUGCC [A6C C8G G27U A39C], the self-cleavage was found to be 0.08.
Consider GGCAUAGCACAACACAGCGUGGCAAAGUGGCUGCGGUUAGACUGCC [G5U U9A U34C C37U], for which the self-cleavage amounted to 0.23.
For the variant GGCAGCGCUCAAGACAGCGUGGCAAAGUGGCAGUGGAUAGACUGCC [A6C C13G U32A C37A], the self-cleavage is 0.06.
The figure for GGCAGCGCUCAACUCAUCGUGGCUACGCGGCUGUGGCUAGACUGCC [A6C A14U G17U A24U A26C U28C] is 0.1; for GGCAGCGCUCAGCACCGCGUGCCGAAGUAGGUGUGGCUAGACUGCC [A6C A12G A16C G22C A24G G29A C31G] it is 0.02.
The figure for GGCAGCGCUCAAAUCUGCGUAGCAAAGUGGCUGUGGCUAGACUGCC [A6C C13A A14U A16U G21A] is 0.04.
With GGCAUAGCGCUACACAGCGUGGCAAACUAGCUGUGGCUAGACUGCC [G5U U9G A11U G27C G29A] the figure was 0; with GGCAGCGCUCAACACAGCGUGGCUAAGUGGCUGUGGCUAGACUGUC [A6C A24U C45U], 2.34; with GGCAUAGCUCAACACAGCGUGGCAAAUUUGAUAUGGCUAGACUGCC [G5U G27U G29U C31A G33A], 0.01.
GGCAGCGCUCACGAUAGCGUGGCAAAGUGCCUGUGGCUAGACUGCC [A6C A12C C13G C15U G30C]: the self-cleavage is 0.02.
